Experimental findings from the antibiotic and cytotoxicity screens of Wong et al. (2023) are described below.

For one assay, the system named is HSkMC. As to the kind of experiment: cytotoxicity call (relative viability < 0.9). Particulars: 10 µM.
Another assay relates to HepG2. As to the kind of experiment: cytotoxicity call (relative viability < 0.9). Particulars: 10 µM.
The next assay has as its system S. aureus RN4220. Nature of the assay: growth inhibition call (relative growth <= 0.2). Particulars: 50 µM.

This is one part of the list.

In the case of `CC(=O)NCCCC[C@@H]1NC(=O)[C@@H]2C[C@H](C(=O)NCCCC[N+](C)(C)C)[C@H](c3cccc(OCCO)c3)N2C1=O`, the cytotoxicity call in the assay with HSkMC is “inactive”. In the assay on HepG2, the cytotoxicity call was “active”. In addition, the growth inhibition call in the assay on S. aureus RN4220 was “inactive”.

For the compound `CN(C)C=C(C=[N+](C)C)c1[nH]ncc1N`, the cytotoxicity call in the assay on HSkMC and with HepG2 was “inactive” in each case. The growth inhibition call in the assay on S. aureus RN4220 was “inactive”.

Turning to `O=C(C[C@@H]1CC[C@H](NC(=O)Cc2ccccn2)[C@H](CO)O1)NCCc1ccncc1`, the cytotoxicity call in the assay on HSkMC and in the assay on HepG2 was “inactive” in each case. The growth inhibition call with S. aureus RN4220 was “inactive”.

Turning to `Cc1ccc(S(=O)(=O)Nc2ccc3c(c2)C(=O)N([C@H](C)CO)C[C@H](C)[C@H](CN(C)S(=O)(=O)c2cccs2)O3)cc1`, the cytotoxicity call in the assay with HSkMC and in the assay on HepG2 was “inactive” throughout. Further, in the assay on S. aureus RN4220, the growth inhibition call was “inactive”.

As to `CO[C@H]1CN(C)C(=O)c2cc(NS(C)(=O)=O)ccc2OC[C@H](C)N(C(=O)CN(C)C)C[C@@H]1C`, the cytotoxicity call in the assay on HSkMC and in the assay with HepG2 was “inactive” in each case. For the same compound, the growth inhibition call in the assay on S. aureus RN4220 is “inactive”.

Take `C[C@@H]1CN([C@@H](C)CO)C(=O)Cc2cc(NS(C)(=O)=O)ccc2O[C@@H]1CN(C)C(=O)NC1CCCCC1`: the cytotoxicity call in the assay on HSkMC and in the assay on HepG2 was “inactive” each time. The growth inhibition call with S. aureus RN4220 is “inactive”.

Turning to `COc1ccc2c3c(n(c2c1)C)[C@H](CO)N(C[C@]13CCN(CC1)C(=O)c1cccnc1)C(=O)c1cccnc1`, the cytotoxicity call with HSkMC and in the assay with HepG2 was “inactive” throughout. Moreover, the growth inhibition call in the assay with S. aureus RN4220 is “inactive”.

As for `Cc1noc(C)c1S(=O)(=O)Nc1ccc2c(c1)C(=O)N([C@H](C)CO)C[C@H](C)[C@H](CN(C)C(=O)Nc1cccc3ccccc13)OCCCC[C@H](C)O2`, the cytotoxicity call in the assay on HSkMC and in the assay on HepG2 was “inactive” each time. For the same compound, the growth inhibition call in the assay with S. aureus RN4220 was “inactive”.

For the compound `COc1ccc(S(=O)(=O)N(C)C[C@H]2Oc3ccc(NC(=O)C4CC4)cc3CC(=O)N([C@H](C)CO)C[C@@H]2C)cc1`, the cytotoxicity call with HSkMC and with HepG2 was “inactive” in each case. Moreover, in the assay with S. aureus RN4220, the growth inhibition call was “inactive”.

As for `Cc1noc(C)c1S(=O)(=O)Nc1ccc2c(c1)C(=O)N([C@H](C)CO)C[C@@H](C)[C@@H](CN(C)Cc1ccc3c(c1)OCO3)O2`, the cytotoxicity call in the assay on HSkMC and with HepG2 was “inactive” each time. The growth inhibition call with S. aureus RN4220 is “inactive”.

For the compound `COc1ccc(C)c2c1CCCC2=O`, the cytotoxicity call in the assay with HSkMC and in the assay with HepG2 was “inactive” each time. Besides, the growth inhibition call with S. aureus RN4220 was “inactive”.

Take `C[C@@H]1CN([C@@H](C)CO)C(=O)c2cc(NC(=O)Nc3cccc4ccccc34)ccc2O[C@@H]1CN(C)Cc1ccc(C(F)(F)F)cc1`: the cytotoxicity call with HSkMC is “inactive”. Also, the cytotoxicity call with HepG2 is “active”. Further, the growth inhibition call in the assay on S. aureus RN4220 is “inactive”.

Turning to `O=C(NCCN1CCOCC1)[C@]1(Cc2ccccc2)N=C(c2ccc(OCCCO)cc2)O[C@@H]1c1ccccc1`, the cytotoxicity call in the assay with HSkMC and with HepG2 was “inactive” in each case. In addition, the growth inhibition call with S. aureus RN4220 was “inactive”.

As for `CCOC(=O)N(C)C[C@@H]1OCc2cn(nn2)CCCC(=O)N([C@H](C)CO)C[C@@H]1C`, the cytotoxicity call with HSkMC and in the assay on HepG2 was “inactive” each time. Also, the growth inhibition call with S. aureus RN4220 was “inactive”.

As for `Cc1ccc2nc([C@H](N)C(C)C)[nH]c2c1`, the cytotoxicity call in the assay on HSkMC and in the assay with HepG2 was “inactive” throughout. In the assay with S. aureus RN4220, the growth inhibition call was “inactive”.

As for `Cc1noc(C)c1S(=O)(=O)Nc1ccc2c(c1)C(=O)N([C@@H](C)CO)C[C@@H](C)[C@@H](CN(C)Cc1ccc(-c3ccccc3)cc1)O2`, the cytotoxicity call with HSkMC and in the assay on HepG2 was “inactive” in each case. Moreover, in the assay on S. aureus RN4220, the growth inhibition call is “inactive”.

In the case of `C[C@@H]1CN([C@H](C)CO)S(=O)(=O)c2ccc(C#CC3(O)CCCC3)cc2O[C@H]1CN(C)C(=O)Cc1cccnc1`, the cytotoxicity call with HSkMC and with HepG2 was “inactive” each time. Also, in the assay on S. aureus RN4220, the growth inhibition call is “inactive”.

As for `COc1ccc(S(=O)(=O)N(C)C[C@H]2Oc3ccc(NC(=O)Cn4cnnn4)cc3CC(=O)N([C@@H](C)CO)C[C@H]2C)cc1`, the cytotoxicity call with HSkMC and in the assay with HepG2 was “inactive” each time. Moreover, the growth inhibition call in the assay with S. aureus RN4220 was “inactive”.

As for `O=C(NCCN1CCOCC1)[C@@]1(CCS(=O)(=O)c2ccccc2)N=C(c2ccc(OCCCO)cc2)O[C@H]1c1ccccc1`, the cytotoxicity call in the assay on HSkMC and in the assay with HepG2 was “inactive” each time. The growth inhibition call with S. aureus RN4220 is “inactive”.

Consider `CCCN(C)C[C@@H]1OCCCC[C@H](C)Oc2ccc(NC(=O)c3ccccc3)cc2C(=O)N([C@@H](C)CO)C[C@@H]1C`, for which the cytotoxicity call in the assay on HSkMC and in the assay on HepG2 was “inactive” each time. In addition, the growth inhibition call with S. aureus RN4220 is “inactive”.

On to `COc1cccc(S(=O)(=O)N(C)C[C@@H]2Oc3ncc(C#CCC(C)C)cc3C(=O)N([C@@H](C)CO)C[C@H]2C)c1`, for which the cytotoxicity call with HSkMC and in the assay on HepG2 was “inactive” throughout. In addition, in the assay on S. aureus RN4220, the growth inhibition call is “inactive”.

With `CN1CCN(c2c(F)cc3c(=O)c(C(=O)O)cn4c3c2OCN4C)CC1`, the cytotoxicity call with HSkMC and in the assay with HepG2 was “inactive” each time. In addition, the growth inhibition call with S. aureus RN4220 was “active”.

For the compound `C[C@H]1CN([C@@H](C)CO)C(=O)Cc2cc(NS(C)(=O)=O)ccc2O[C@@H]1CN(C)S(=O)(=O)c1ccc(Cl)cc1`, the cytotoxicity call in the assay on HSkMC and in the assay on HepG2 was “inactive” in each case. The growth inhibition call with S. aureus RN4220 is “inactive”.

In the case of `COc1ccc(S(=O)(=O)N(C)C[C@@H]2Oc3ncc(Br)cc3C(=O)N([C@H](C)CO)C[C@@H]2C)cc1`, the cytotoxicity call with HSkMC and in the assay on HepG2 was “inactive” each time. For the same compound, in the assay on S. aureus RN4220, the growth inhibition call is “inactive”.

Turning to `Cc1cc2n(c(=O)c1C(N)=O)CCO2`, the cytotoxicity call in the assay with HSkMC and in the assay on HepG2 was “inactive” throughout. Further, in the assay on S. aureus RN4220, the growth inhibition call is “inactive”.

As to `Cc1ccc(S(=O)(=O)Nc2ccc3c(c2)CC(=O)N([C@@H](C)CO)C[C@H](C)[C@@H](CN(C)S(=O)(=O)c2ccccc2)O3)cc1`, the cytotoxicity call in the assay with HSkMC and in the assay with HepG2 was “inactive” throughout. For the same compound, the growth inhibition call in the assay on S. aureus RN4220 was “inactive”.

`C[C@@H]1CN([C@H](C)CO)C(=O)c2cc(NS(=O)(=O)c3ccccc3)ccc2O[C@@H]1CN(C)CC1CC1`: the cytotoxicity call with HSkMC and with HepG2 was “inactive” each time. Further, the growth inhibition call with S. aureus RN4220 is “inactive”.

For the compound `COCC#Cc1ccc2c(c1)O[C@H](CN(C)S(=O)(=O)c1ccc(F)cc1)[C@H](C)CN([C@@H](C)CO)S2(=O)=O`, the cytotoxicity call in the assay on HSkMC (human skeletal muscle cells) and with HepG2 was “inactive” in each case. Moreover, the growth inhibition call in the assay with S. aureus RN4220 is “inactive”.
